The text below walks through data of the RNAGym collection of RNA variant scans (doi:10.1073/pnas.2313332121).

The labels stand for the following.
B1: TPR 5TU (parent)
chain: GGAUCUUCUCGAUCUAACAAAAAAGACAAAUCUGCCACAAAGCUUGAGAGCAUCUUCGGAUGCAGAGGCGGCAGCCUUCGGUGGCGCGAUAGCGCCAACGUUCUCAACUAUGACACGCAAAACGCGUGCUCCGUUGAAUGGAGUUUAUCAUG

Variants at the background level are over-represented here. Some results are limits rather than exact numbers.

Variants of B1 are the subject of this series. Briefly: polymerase ribozyme fitness, log enrichment relative to wild type (log ratio); higher = more active; in vitro selection for triplet polymerase activity. The essentials:
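PCR was used to build mutant libraries for each subunit of a heterodimeric triplet polymerase ribozyme, which were then transcribed. A single in vitro selection round, in triplicate, used a frozen incubation at −7 °C and recovered extended constructs by gel excision, streptavidin beads and RT-PCR. Fitness is the logarithm of genotype enrichment relative to wild-type enrichment, averaged over replicates with inverse-variance weights. The logarithm is base 2, and after Illumina sequencing only genotypes with ≥10 input reads and ≥1 read per output were kept.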
As to GGAUCUUCUCGAUCAAACCAAAAAGUCAAAUCUGCCACAAAGCUUGAGAGCAUCUUCGGGUGCAGAGGCGGCAGCCUUCGGUGGCGCGAUAGUGCCAACGUUCUCAACUAUGACACGCAAAACGUGUGCUCCGUUGAAUGGAGAUUAUCAUG, the “polymerase ribozyme fitness (log ratio)” value is at most -4.2. For the variant GGAUCUUCUCGAUCAAACAAAAAAGACAAAUCUGCCAUAAAGCUUGAGAGCAUCCUCGGAUGCAGUGGCGGCAGCCUUCGGUGGCGGGAUAGCGCCAACGUUCUCAACUAUGACCCGCAAAACGCGUGCUCCGUUGAAUGGAGUUUAUCAUG, the “polymerase ribozyme fitness (log ratio)” value is at most -4.2. For the variant GGAUCUUCUCGAUCAAACAAAAAAGACAAAUCUGCCACAGAGCUUAAGAGCAUCAUCGGAUGCAGAGGCGGCAGCCUUCGGUGGCGUGAUAGCGCCAACGUUCGCAACUAUGACACGCAAAACGCGUGCUCCGUUGAAUGGAGUUUAUCAUG, the “polymerase ribozyme fitness (log ratio)” value is at most -4.2.

With GGAUCUUCUCGAUCAAACAAAAAAGACAAUACUGCCACAAAGCUUGAGAGCAUUGUCGGAUGCAGAGGCGGCAGCCUUCGGUGGCGCAAUAGCUCCAACGUUCUCAACUAUGACACGCAAAACGCGUGCUCCGUUGAAUGGAGUUUAUCAUG, the “polymerase ribozyme fitness (log ratio)” value is at most -4.2. The value for GGAUCUUCUCGAUCAAACAAAAAAGACAAAUCUGCCACAAACCUUGAGAGCAUCUUCGGAUGCAGAGGCGGCAGCCUUCGGUAGCGCGAUAGCGCCAACGUUCUCAGCUAUGAGACGAAAAACGCGUGCUCCAUUGAAUGGAGUUUAUCAUG was at most -4.2; that for GGAUCUUCUCGAUUUAACAAAAAAGACAAAUCUGCCACAAAGCUUGAGAGCAGCUUCGGAUGCAGAGGCGGCAGCCUUCGGUGUCGGGAUAGCGCCAUCGUUCUCAACUAUGACACGCAAAACGCGUGCUCCGUGGAAUUGAGUUUAUCAUG was at most -4.2. Regarding GGAUCUUCUCGAUCAAACAAAAAAGACAAAUCUGCCACAAAGCUUGAGAGCAUCUUCGGAUGCAGAGGCGGCAGCCUUCAGUGGCGCGAUCGCGCCAACGUUCUCAACUAUGACACGCAGAACGCGUGCUCCGUUGAAUGGAGUUUAUCAUG, the “polymerase ribozyme fitness (log ratio)” value was at most -4.2. For the variant GGAUCUUCUCGAUUUAACAAAAAAGACAAAUCUGCCACAAAGCUUGAGAGCAUCGUCGGAUGCAGAGGCGGCAGUCUUCGGUGGCGCAAUAGCGCCAACGUUCUCAACUAUGACACGUAAAACGCGUGCUCCGUUGAAUGCAGUUUAUCAUG, the “polymerase ribozyme fitness (log ratio)” value is at most -4.2. Regarding GGAUCUUCUCGAUUUAACAAAAAAGACAAAUCUGCCACAAAGCUUGAGAGCAUCUUCGGAAGCAGAGACGGCAGCCUUCGGUGGCGCGAUAGCGCCAACGUUCUCAACUAUGACACGCAAAACGCUUGCUCCGUUGAAUGGCGUUUAUCAUG, the “polymerase ribozyme fitness (log ratio)” value was at most -4.2. Next, GGAUCUUCUCGAUUUAACAAAAAAGACAAAUCUGCCACAAAGCUUGAGAGCAACUACGGAUGCAGAGGCGGCAGCCUUCGGUGGCGCGAUAGCGCCAACGUUCUCAACUAUGACACGCAAAACGCGUGCUCCGUUGAAUGGAGUUUAUCAUG: -2.46; GGAUCUUCUCGAUUUAACAAAAAAGACAAAUCUGCCACAAAGCUUGAGAGCAACUGCGGAUGCAGAGGUGGCAGCCUUCGGUGGCGCGAUAGCGACAACGUUCUCAAAUAUGACACGCAAAACGCGUGCUCCGUUGAAUGGAGUUUAUCAUG: at most -4.2; GGAUCUUCUCGAUCAAACAAAAAAGACAAAUCUGCUACAAAGCUUGAGAGCAUCUUCGGAUGUAGAGGCGGCAGCCUUCGGUGGCGCGAUAGCGCGAACCUUCUCAACUAUGACACGCAAAACGCGUGCUCCGUUGAAUGGAGUUUAUCAUG: at most -4.2. GGAUCUUCUCGAUCAAACAAAAAAGACAAAUCUGUCACAAAGCUUGAGACCAUCUUCGGAUGCAGAGGCGGCGGCCUUCGGUGUCGCGAUAGCGCCAACGUUCUCAACUAUGACACGCAAAACGCGUGCUCCGUUGAAUGGAGUUUAUCAUG: the “polymerase ribozyme fitness (log ratio)” value is at most -4.2. The value for GGAUCUUCUCGAUCAAACAAAAAAGACAAAUCUGCCACAAAGCUUGAGAGCAUCUUCGGAUGCAGAGGCGGCAGCCUUCGGUUGCGCGAUAGCGCCAACGUUCUCAACUAUGACACGCAAAACGCGUGCUCCGUUGAAUGGAGUUUAUCAUG was -0.19; that for GGAUCUUCUCGAUUUAACAAAAAAGACAAAUCUGCCACAAAGCUUGAGAGCAUCUCCGGAUGCAGAGGCGGCAGCCUUCGGUGGCGCGAUAGCGCCAACGGUCUCAACGAUGCCACGCAAAACGCGUGCUCCAUUGAAUGGAGUUUAUGAUG was at most -4.2. With GGAUCUUCUCGAUCAAACAAAAAAGACAAAACUGCCACAAAGCUUGAGAGCAUCUUCGGAUGCAGAGGCGGCAGCCUUCGGUUGCGCGAUAGCGCCAACGUUGUCAACUAUGACACGCAAAACGCGUGCUCCGUUGAAAGGAGUUUAUCAUG, the “polymerase ribozyme fitness (log ratio)” value was at most -4.2.

For GGAUCUUCUCGAUCAAACUAAAAAGACAAAUCUGCCACAAAGCUUGAGAGCAUCUUCGGAUGCAGAGGCGGCAGACUUCGGUUGCGCUAUAGCGCCAACGUUCUCAACUAUGACACGCAAAACGCGUGCUCCGUUGAAUGGAGCUUAUCAUG, the “polymerase ribozyme fitness (log ratio)” value is at most -4.2. With GGAUCUUCUCGAUCAAACAAAAAAGACAAAUCUGCCACAAAGCUUAAGAGCCUUUUCGGAUGCAGAGGCGGCAGCCUUCGGUGGCGCGAUAGCUCCAACGUUCUCAUCUAUGACACGCAAAACGCGUGCUCCGUUGAAUGGAGUAUAUCGUU, the “polymerase ribozyme fitness (log ratio)” value is at most -4.2. Next, GGAUCUUCUCGAUCAUGCAAAAAAGACAAAUCUGCCACAAAGCUUGAGAGCAUCUUCGGAUGCAGAGGCGGCAGCCUUCGGUGGCGCGAUGGAGCCAACGUUCUCAACUAUGACACGCAAAACGCGUGCUCCGUUGAAUUGAGUUUAUCAUG: at most -4.2; GGAUCUUCUCGAUCAAAGAAAAAAGAUAAAUCUGCCACAAAGCUUGAGAGCAUCAUCGGAUGCAGAGGCGGCAGCCUUCGGUGGCACGAUAGCGCGAACGUUCACAACUAUGACACGCAAAACGCGUGCUCCGUUGAAUGGAGUUUAUCGUG: at most -4.2; GGAUCUUCUCGAUCAAACAAAAAAGACAAAUCUGCCAUAAAGCUUGAGAGCAUUUUCGGAUGCAGAGGCGGCAGCCUUCGGUGGCGCGAUAGCGGCAACGUUCUCAACUAUGACACGCAAAACGCGUGCUCCGUUGAAUGAAGUUUAUCAUG: -1.16. The value for GGAUCUUCUCGAUUUAACAAAAAAGACAAAUCUGCCACAAAGCAUGAGAGCAUCUUCGGAUGCUGAAACGGCAGCCUUCGGUGUCGCGAUAGGGCCAACGUUCUCAACUAUGACACGCAAAACACGUGCUCCGUUGAAUGGAGUUUAUCAUG was at most -4.2; that for GGAUCUUCUCGAUUUAACAAAAAAGACAAAUCUGCCACAAAGCUAGAGGGCAUCUUCGGAUGCAGAGGCGGCAGCCUUCGGUGGCGCUAUAGCGCCAACGUUCUCAACUAUGACACGUAAAACGCGUGCUCCGUUGAAUGGAGUUUAUCAUG was at most -4.2. GGAUCUUCUCGAUCAAACAAAAAAGACAAAUCUGCAACAAAGCUUGAGAGCAUCUUCGGCUGCAGAGGCGGCAGCCUUCGGUGGCGCGAUAGCGCCAACGUUAUCAUCUAUGACGUGCAAAACGCGUGCUCCGUUGAAUGGCGUUUAUCAUG: the “polymerase ribozyme fitness (log ratio)” value was at most -4.2.

With GGAUCUUCUCGAUCAAACAAAAACGAAAAAUCUGCCACAAAGCUUGAGAGCAUCAUCGGAUGCAGAGGCGGCAGCCUUCGGUGGCACGAUAGCGCCAACGUUCUCAACUAUGACACGCAAAACGCGUGCUCCGUUGAAUGGAGUUUAUCAUG, the “polymerase ribozyme fitness (log ratio)” value was at most -4.2.

For GGAUCUUCUCGAUCAAACGAAAAAGACAAUUCUGCCACAAAGCUUGAGAGCAGCUUCGGAUGCAGAGACGGCGGCCUUCGGUGGGGCGAUAGCGCCAACGUUCUCAACUAUGACACGCAAAACGCGUGCUCCGUUGAAUGGAGUUUAGCAUG, the “polymerase ribozyme fitness (log ratio)” value was at most -4.2. Regarding GGAUCUUCUCGAUCAAACAAUAAAGACAAAUCUGUCACAAAGCUUGAGAGCAUCUUCGGAUGCAGAGGCGGCAGCCUUCGGUGGCGCGAUAGCGCCGACGUUCUCAACUAUGACACGCAAAACGCGUGCUCCGUUGAAUGGAGUUUAUCACG, the “polymerase ribozyme fitness (log ratio)” value is at most -4.2. GGAUCUUCUCGAUCAAACAAAAAAGACAAAUCUGCCACAAAGCUUGAGAACAUCUUCGGAUGCAGAGGCGGCAGCCUUCGGUGGCGCGAUAGCGCCAACGUUCUCAACGGUGACACGCAAAACGCGUGCUCCGUUGAAUGGAGUUUAUCAUG: the “polymerase ribozyme fitness (log ratio)” value is at most -4.2.

With GGAUCUUCUCGAUCAAACAAAAUAGACAAAUCUGCCACAAAGCUUGAGAGCAUCUUCGGAUGCAGAGGCGGCAGCCUUCGGUGGCGAGAUAGCGCCAACGUUCUCAACUAUGACACGCAAAACGGGUGCUCCGUUGAAUGUAGUUUAUCAUG, the “polymerase ribozyme fitness (log ratio)” value was at most -4.2. As to GGAUCUUCUCGAUCAAACAAAAAAGACAAAUCUGCCACAAAGGUUGAGAGCAUCUUCGGAUGCAGAGGCGGCAGCCUUCGGUGGCGAGAUAGCGCCAACGUUCUCAACUAUGACAUGCAAAACGCGUGCUCCGUUGAAUGGUGUUUAUCAAG, the “polymerase ribozyme fitness (log ratio)” value was at most -4.2. As to GGAUCUUCUCGAUCAAACAAAAAAGACAUAUCUGCCACAAAGCUUGAGAGCAUCUUCGUAUGCAGAGGCGGCAGCCUUCGGUGGCGCGAUAGCGUCAACGUUCUCAACUAUGACACGCAGAACGCGGGCUCCGUCGAAUGGAAUUUAUCAUG, the “polymerase ribozyme fitness (log ratio)” value is at most -4.2. For the variant GGAUCUUCUCGAUCAAACAAAAAAGACAAAUCUGCCACAAAGAUUGAGAGCAUCUACGGAUGCAGAGGCGGCAGCCUUCGGUGGCGUGAUAGCGCCAACGUUCUCAAGUAUGACACGCAAAACGCGUGCUCCGUUGAAUGGAGUUUAUCAUG, the “polymerase ribozyme fitness (log ratio)” value is at most -4.2. For GGAUCUUCUCGAUCAAACAAAAAAGACAAAUCUGCCACAAACCUUGAGAGCAUCUUCGGAUGCAGAGGCGGCAGCCUUCGGUGGCGCGAUAGGGCCAACGUUCUCAACUAUGACACGCAAAACGCGUGCUCCGUUGAAUGGCGUUUAUCAUG, the “polymerase ribozyme fitness (log ratio)” value was at most -4.2. Take GGAUCUUCUCGAUCAAACAUAAAAGACAAAUCUGCCACAAAGCUUGAGAGCAUGUUCGGAUGCAGAGGCGGCAGCCUUCGAUGGCGCGAUAGCGCCAACGUUCUCAACUAUGAUACGCAAAAGGCGUGCUCCGUUGAAUGGAGUUUAUCAUG: the “polymerase ribozyme fitness (log ratio)” value is at most -4.2. Turning to GGAUCUUCUCGAUCAAACAAAAAAGACAAUUCUGUCACAAAGCUUGAGAGCAUCUUCGCAUGCAGAGGCAGCAGCCUUCGGUGGCGGGAUAGCGCCAACGUUCUCAACUAUGACACGCAAAACGCGUGCUCCGUUAAAUGGAGUUUAUCAUG, the “polymerase ribozyme fitness (log ratio)” value is at most -4.2.

Take GGAUCUUCUCGAUCAAACAAUAAAGACAAAUAUGCCACAAAGCUUGAGAGCAUCUUCGGAUGCAGAGACGGAAGCCUUCGGUGGUGCGAUAGCUCCAACGUUCUCAACUAUGACACGCAAAACACGUGCUCCGUUGAAUGGAGUUUAUCAUG: the “polymerase ribozyme fitness (log ratio)” value is at most -4.2. The value for GGAUCUUCUCGAUCAAACAACAAAGACAAAUCUGCCACAAAGCUUGAGAGCAUCUACGGAUGCAGAGCCGGCAGCCAUCGGUGGCGCGAUAGCGCGAACGUUCGCAAUUAUGACACGCAAAACGCGUGCUCCGUUGAAUGCAGUUUAUCAUG was at most -4.2; that for GGAUCUUCUCGAUCAAACAAAAAAGACAGAUCUGCCACAAAGCUUGAGAGCAUCUUCGGAUGCAGAGGCGGCAGCCUUCGGUGGUGCGAUAGCGCCAACGUGCUCGGCUAUGACACGCAAAACGCGAGCUCCUUUGAAUCGAGUUUAUCAUG was at most -4.2.
